The values below come from patent US11866509B2, “Humanized antibodies against CEACAM1” (Famewave Ltd., priority 2014, dated 2024).

Data set [1] concerns CEACAM1 positive non-target cells (human normal cells). Put plainly: Cytotoxic activity of effector lymphocytes against non-target cells. The format is cell-based. The text has this: (§1) CM-24 enhances the cytotoxic activity of effector cells in the presence of CEACAM1 positive tumor cells and in the context of a specific human leukocyte antigen (HLA)-restricted T cell reaction.

Data set [2] in a line: 6 week GLP repeat dose toxicity study. The format is in vivo. The method, then: A 6 week repeat dose study was performed in rhesus monkeys to evaluate the toxicity and toxicokinetics of CM-24. CM-24 was administered via intravenous (IV) infusion (the intended clinical route of administration) once every two weeks for a total of 4 doses (mimicking the intended treatment cycle in oncology patients) at doses representing 2.5× (25 mg/kg) and 10× (100 mg/kg) the projected maximal dose in humans (10 mg/kg). No obvious treatment related adverse reactions, no gross or microscopic pathological findings, and no mortality were observed. Ophthalmoscopy and electrocardiography indicated no findings related to the treatment.

Data set [3] deals with granzyme B secretion of human LAK cells. Put plainly: Granzyme B secretion of human LAK cells with cancer cells, ELISA. It is filed as cell-based. The following applies: with T3M4 or H358 cells, 24 hours. The method, then:
• A. Anti-CEACAM1 antibodies increase the cytotoxicity of human LAK cells against human melanoma cells: PBMC cells were isolated from a healthy donor followed by activation with IL-2 (500 or 1000 units/ml) for 3 days to generate a population of human LAK cells. Then, the human LAK cells were incubated with 0.1 μg/ml, 0.5 μg/ml, 2.5 μg/ml, 5 μg/ml or 10 μg/ml of an anti-CEACAM1 antibody (CM-24) for 30 minutes at 37° C. Human melanoma cells (SKMEL28) were added for an incubation of 24 hours, after which cytotoxicity was determined. […] PBMC cells were isolated from a healthy donor followed by activation with IL-2 (500 units/ml) for 7 days to generate a population of human LAK cells. Then, the human LAK cells were incubated with 0.1 μg/ml to 10 μg/ml of an anti-CEACAM1 antibody (CM-24) as indicated, for 30 minutes at 37° C. Three different human pancreatic cancer cells, T3M4, SU8686 and PANC2, and two different human lung cancer cells, H358 and H460, were added for an incubation of 24 hours. […] Anti-CEACAM1 antibodies enhance granzyme B secretion of human LAK cells in the presence of human pancreatic and lung cancer cells. Human LAK cells were incubated with an anti-CEACAM-1 antibody (CM-24) in different concentrations for 30 minutes at 37° C. […] Granzyme B secretion was measured by ELISA. […] IFN-γ secretion was measured by ELISA.
(In general: An ELISA detects its analyte on a solid surface through an enzyme-linked reagent.)

Data set [4] concerns CEACAM1-positive primary cells (lymphocytes, epithelial and endothelial cells). Briefly: Proliferation rate or viability of primary cells. The format is cell-based.
Description: as §1

B1: CM-24: back-mutated humanized IgG4 anti human CEACAM1 monoclonal antibody; light chain SEQ ID NO: 52, heavy chain SEQ ID NO: 53 (antibody)
heavy: QVQLVQSGAEVKKPGASVKVSCKASGYAFTNNLIEWVRQAPGQGLEWIGVINPGSGDTNYNEKFKGRVTMTADKSISTAYMELSRLRSDDTAVYYCARGDYYGGFAVDYWGQGTTVTVSSASTKGPSVFPLAPCSRSTSESTAALGCLVKDYFPEPVTVSWNSGALTSGVHTFPAVLQSSGLYSLSSVVTVPSSSLGTKTYTCNVDHKPSNTKVDKRV[letters of human IgG4 Fc with S228P (EU numbers) left out]
light: DIQMTQSPSSLSASVGDRVTITCRTSQDIGNYLNWYQQKPGKAVKLLIYYTSRLHSGVPSRFSGSGSGTDYTLTISSLQPEDIATYFCQQGKSLPRTFGGGTKVEIKRTVAAPSVFIFPPSDEQLKSGTASVVCLLNNFYPREAKVQWKVDNALQSGNSQESVTEQDSKDSTYSLSSTLTLSKADYEKHKVYACEVTHQGLSSPVTKSFNRGEC
B1: the “cytotoxic activity of effector lymphocytes against non-target cells” value in data set [1] is “does not enhance”. Also, in data set [2] (25 and 100 mg/kg), the treatment-related toxicities entry is reported as “no treatment-related toxicities at any dose level”. Further, the “No Observed Effect Level (NOEL)” value in data set [2] (IV infusion once every two weeks, 4 doses, 25 and 100 mg/kg) turned out to be 100 mg/kg. Further, in data set [2] (weight-to-weight basis), the “human equivalent dose (HED) of the NOEL” value is given as 100 mg/kg. For the same molecule, the “Granzyme B levels” value in data set [3] is “significantly increases Granzyme B levels in a dose-dependent manner”. In addition, the “direct effect on proliferation rate or viability” value in data set [4] is on record as “no direct effect”.
